The other results are listed elsewhere or left out.

The values below come from publication PMC12820563, “FoxP3 forms a head-to-head dimer in vivo and stabilizes its multimerization on adjacent microsatellites”.

This test has as its target T1, MBP-FoxP1dN (Mus musculus, UniProt P58462 326-579).
T1 sequence: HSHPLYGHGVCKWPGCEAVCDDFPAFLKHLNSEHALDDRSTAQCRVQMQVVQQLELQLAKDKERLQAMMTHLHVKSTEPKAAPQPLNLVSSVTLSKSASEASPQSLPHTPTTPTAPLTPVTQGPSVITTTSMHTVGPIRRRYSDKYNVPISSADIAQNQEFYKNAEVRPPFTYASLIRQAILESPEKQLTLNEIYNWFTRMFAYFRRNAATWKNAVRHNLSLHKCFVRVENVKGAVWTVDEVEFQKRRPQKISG
The test can be described thus: PD-seq (MBP pull-down with sequencing); 20 mM Tris-HCl pH 7.5, 100 mM NaCl, 1.5 mM MgCl2, 0.4 uM protein, 0.1 uM dsDNA library, 30 min, room temperature, amylose pull-down; high values mean tight binding. As to conditions: protein: recombinant; tags: His6-MBP; chain copies: 2; dsDNA, one strand shown. An outline of the steps:
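A fragment of mouse FoxP3 or FoxP1 without its N-terminus, carrying a His6-MBP tag and produced in E. coli, was combined at 0.4 µM with a 0.1 µM degenerate double-stranded DNA library filled in with Klenow. The mixture sat for 30 min at room temperature in Tris pH 7.5 buffer containing NaCl and MgCl2. Protein–DNA complexes were captured on amylose resin, washed three times, and the DNA was freed with proteinase K, barcoded by PCR and sequenced on Illumina. Binding is expressed as reads-per-million enrichment of pull-down over input, with replicates pooled.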
Turning to “GATGATTGTTCTCCCAGCTGATGAATTACGATAATCGAGTAAACAAATTTTCCTAATCTTTCTGTTCAAGCGCCATCTAC”, the binding signal was 1.37 RPM ratio (pull-down/input). Turning to “GATGATTGTTCTCCCAGCTGATGAATTCCACTATTCGAGTAAACAAATTTTCCTAATCTTTCTGTTCAAGCGCCATCTAC”, the binding signal is 0.975 RPM ratio (pull-down/input).

For the sequence “GATGATTGTTCTCCCAGCTGATGAATTAAAAGGTTCGAGTAAACAAATTTTCCTAATCTTTCTGTTCAAGCGCCATCTAC”, the binding signal was 0.791 RPM ratio (pull-down/input). Take “GATGATTGTTCTCCCAGCTGATGAATTTGTGGATTCGAGTAAACAAATTTTCCTAATCTTTCTGTTCAAGCGCCATCTAC”: the binding signal was 1.09 RPM ratio (pull-down/input). Next, “GATGATTGTTCTCCCAGCTGATGAATTTTGTCGTTCGAGTAAACAAATTTTCCTAATCTTTCTGTTCAAGCGCCATCTAC”: 1.17 RPM ratio (pull-down/input); “GATGATTGTTCTCCCAGCTGATGAATTGCTATTGTCGAGTAAACAAATTTTCCTAATCTTTCTGTTCAAGCGCCATCTAC”: 2.28 RPM ratio (pull-down/input). Regarding “GATGATTGTTCTCCCAGCTGATGAATTCAGAAATTCGAGTAAACAAATTTTCCTAATCTTTCTGTTCAAGCGCCATCTAC”, the binding signal is 0.848 RPM ratio (pull-down/input). As to “GATGATTGTTCTCCCAGCTGATGAATTTAGGAACTCGAGTAAACAAATTTTCCTAATCTTTCTGTTCAAGCGCCATCTAC”, the binding signal was 0.965 RPM ratio (pull-down/input).

“GATGATTGTTCTCCCAGCTGATGAATTATGTGGGTCGAGTAAACAAATTTTCCTAATCTTTCTGTTCAAGCGCCATCTAC”: the binding signal is 0.922 RPM ratio (pull-down/input). With “GATGATTGTTCTCCCAGCTGATGAATTCAGACGCTCGAGTAAACAAATTTTCCTAATCTTTCTGTTCAAGCGCCATCTAC”, the binding signal is 0.891 RPM ratio (pull-down/input). For “GATGATTGTTCTCCCAGCTGATGAATTGGCTGGTTCGAGTAAACAAATTTTCCTAATCTTTCTGTTCAAGCGCCATCTAC”, the binding signal was 0.864 RPM ratio (pull-down/input). For the sequence “GATGATTGTTCTCCCAGCTGATGAATTCTGAACATCGAGTAAACAAATTTTCCTAATCTTTCTGTTCAAGCGCCATCTAC”, the binding signal was 0.898 RPM ratio (pull-down/input). “GATGATTGTTCTCCCAGCTGATGAATTAGGTGAGTCGAGTAAACAAATTTTCCTAATCTTTCTGTTCAAGCGCCATCTAC”: the binding signal is 0.866 RPM ratio (pull-down/input).

Take “GATGATTGTTCTCCCAGCTGATGAATTCTCATGGTCGAGTAAACAAATTTTCCTAATCTTTCTGTTCAAGCGCCATCTAC”: the binding signal is 0.904 RPM ratio (pull-down/input).

Turning to “GATGATTGTTCTCCCAGCTGATGAATTTCCCTGATCGAGTAAACAAATTTTCCTAATCTTTCTGTTCAAGCGCCATCTAC”, the binding signal is 0.835 RPM ratio (pull-down/input). On to “GATGATTGTTCTCCCAGCTGATGAATTGTACTTTTCGAGTAAACAAATTTTCCTAATCTTTCTGTTCAAGCGCCATCTAC”, for which the binding signal was 1.04 RPM ratio (pull-down/input). As to “GATGATTGTTCTCCCAGCTGATGAATTCAGAGACTCGAGTAAACAAATTTTCCTAATCTTTCTGTTCAAGCGCCATCTAC”, the binding signal is 0.821 RPM ratio (pull-down/input). “GATGATTGTTCTCCCAGCTGATGAATTCCAAACATCGAGTAAACAAATTTTCCTAATCTTTCTGTTCAAGCGCCATCTAC”: the binding signal was 1.6 RPM ratio (pull-down/input). Take “GATGATTGTTCTCCCAGCTGATGAATTAACCCTCTCGAGTAAACAAATTTTCCTAATCTTTCTGTTCAAGCGCCATCTAC”: the binding signal was 0.849 RPM ratio (pull-down/input).

“GATGATTGTTCTCCCAGCTGATGAATTCGAGCATTCGAGTAAACAAATTTTCCTAATCTTTCTGTTCAAGCGCCATCTAC”: the binding signal was 1.12 RPM ratio (pull-down/input). As for “GATGATTGTTCTCCCAGCTGATGAATTTAACATTTCGAGTAAACAAATTTTCCTAATCTTTCTGTTCAAGCGCCATCTAC”, the binding signal is 0.988 RPM ratio (pull-down/input).

As to “GATGATTGTTCTCCCAGCTGATGAATTTGTGTCGTCGAGTAAACAAATTTTCCTAATCTTTCTGTTCAAGCGCCATCTAC”, the binding signal is 1.23 RPM ratio (pull-down/input). In the case of “GATGATTGTTCTCCCAGCTGATGAATTCAGATTCTCGAGTAAACAAATTTTCCTAATCTTTCTGTTCAAGCGCCATCTAC”, the binding signal is 0.825 RPM ratio (pull-down/input). In the case of “GATGATTGTTCTCCCAGCTGATGAATTCCCAGATTCGAGTAAACAAATTTTCCTAATCTTTCTGTTCAAGCGCCATCTAC”, the binding signal is 0.781 RPM ratio (pull-down/input).

As for “GATGATTGTTCTCCCAGCTGATGAATTGAAACTCTCGAGTAAACAAATTTTCCTAATCTTTCTGTTCAAGCGCCATCTAC”, the binding signal was 0.736 RPM ratio (pull-down/input). For “GATGATTGTTCTCCCAGCTGATGAATTGAACTGATCGAGTAAACAAATTTTCCTAATCTTTCTGTTCAAGCGCCATCTAC”, the binding signal was 0.826 RPM ratio (pull-down/input). “GATGATTGTTCTCCCAGCTGATGAATTATATGCCTCGAGTAAACAAATTTTCCTAATCTTTCTGTTCAAGCGCCATCTAC”: the binding signal was 1.05 RPM ratio (pull-down/input).

For “GATGATTGTTCTCCCAGCTGATGAATTCGAAGTCTCGAGTAAACAAATTTTCCTAATCTTTCTGTTCAAGCGCCATCTAC”, the binding signal is 0.816 RPM ratio (pull-down/input). For the sequence “GATGATTGTTCTCCCAGCTGATGAATTGTGTCGTTCGAGTAAACAAATTTTCCTAATCTTTCTGTTCAAGCGCCATCTAC”, the binding signal was 1.08 RPM ratio (pull-down/input). As to “GATGATTGTTCTCCCAGCTGATGAATTGTGCGATTCGAGTAAACAAATTTTCCTAATCTTTCTGTTCAAGCGCCATCTAC”, the binding signal was 1.01 RPM ratio (pull-down/input). Take “GATGATTGTTCTCCCAGCTGATGAATTTACGACATCGAGTAAACAAATTTTCCTAATCTTTCTGTTCAAGCGCCATCTAC”: the binding signal is 1.34 RPM ratio (pull-down/input). Consider “GATGATTGTTCTCCCAGCTGATGAATTCCGCCGTTCGAGTAAACAAATTTTCCTAATCTTTCTGTTCAAGCGCCATCTAC”, for which the binding signal was 0.826 RPM ratio (pull-down/input).
